According to the supplement of paper PMC12217912:
The list shows a part of the results. The full chains were built here from the parent and the listed change. Values near 0.05 are background.

B1: TEV protease; numbered along this chain (parent)
chain: MGESLFKGPRDYNPISSSICHLTNESDGHTTSLYGIGFGPFIITNKHLFRRNNGTLVVQSLHGVFKVKDTTTLQQHLVDGRDMIIIRMPKDFPPFPQKLKFREPQREERICLVTTNFQTKSMSSMVSDTSCTFPSGDGIFWKHWIQTKDGQCGSPLVSTRDGFIVGIHSASNFTNTNNYFTSVPKNFMELLTNQEAQQWVSGWRLNADSVLWGGHKVFMVKPEEPFQPVKEATQL

Variants of: B1
Assay: raw area under fraction-flipped curve 0-4 h after induction (AUC4h, not background-subtracted), DNA-recorder readout of cleavage of the substrate (dimensionless); higher = more cleavage of the substrate by the protease variant
Settings: temperature: 34 °C; time window: 0-4 h after rhamnose induction
Description: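 In vivo DNA recorder in E. coli TOP10(DE3) ΔrhaA at 34 °C. Each TEVp single-site mutant (parent TEVp 0) is paired with a single-site variant of the 7-mer TEVs (canonical ENLYFQ|S). The substrate sits between flexible linkers in a Bxb1-sfGFP-TEVs-SsrA fusion, so cleavage stabilises Bxb1 and speeds flipping of a recombination array, read by NGS. The value is the raw area under the fraction-flipped curve over 0-4 h after rhamnose induction (AUC4h), with ≥20 reads per time point. It is not background-subtracted; inactive controls average about 0.047.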
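Also: Bxb1 expression induced with 0.2% (w/v) L-rhamnose at OD600 near 0.5, cultures sampled hourly, flipped fraction per protease–substrate barcode pair counted by paired-end Illumina sequencing.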

| Variant | area with substrate ENLYFQC | area with substrate ENLYFQD | area with substrate ENLYFQE | area with substrate ENLYFQF | area with substrate ENLYFQG | area with substrate ENLYFQL | area with substrate ENLYFQM | area with substrate ENLYFQN | area with substrate ENLYFQP | area with substrate ENLYFQR | area with substrate ENLYFQS | area with substrate ENLYFQT | area with substrate ENLYFQV | area with substrate ENLYFQW | area with substrate ENLYFQI | area with substrate ENLYFQK | area with substrate ENLYFQQ | area with substrate ENLYFQY | area with substrate ENLYFQH |
| --- | --- | --- | --- | --- | --- | --- | --- | --- | --- | --- | --- | --- | --- | --- | --- | --- | --- | --- | --- |
| W199G | 0.0564 | 0.0704 | 0.0662 | 0.0697 | 0.0611 | 0.055 | 0.0583 | 0.0533 | 0.0536 | 0.0703 | 0.0621 | 0.0349 | 0.0572 | 0.0528 | – | – | – | – | – |
| R51I | 0.0999 | 0.0773 | – | – | – | 0.0568 | 0.0826 | 0.0655 | – | 0.0749 | 0.0856 | 0.0633 | – | 0.0715 | 0.0578 | 0.0541 | 0.0827 | 0.0773 | – |
| W141S | 0.0561 | 0.0522 | – | 0.0465 | 0.0936 | – | 0.0552 | – | 0.0677 | 0.0512 | 0.0578 | – | 0.0584 | 0.0598 | 0.054 | 0.0536 | – | 0.062 | 0.0638 |
| G150N | 0.0634 | – | – | 0.0516 | 0.0702 | 0.0531 | 0.0555 | 0.0342 | – | 0.0503 | 0.0611 | 0.0599 | 0.0567 | 0.0602 | 0.0567 | 0.0523 | – | 0.0604 | 0.0496 |
| S127T | 0.127 | 0.0834 | – | 0.0465 | 0.107 | 0.0614 | 0.0459 | 0.0857 | – | 0.0592 | 0.1 | 0.097 | 0.0552 | 0.0636 | 0.069 | 0.0583 | – | 0.102 | 0.0671 |
| D208R | 0.0772 | 0.0584 | – | – | 0.0785 | – | – | 0.0694 | 0.0654 | 0.0629 | 0.0779 | 0.0426 | – | 0.0626 | – | – | – | 0.0524 | – |
| G35E | 0.05 | – | – | – | 0.0418 | 0.0403 | – | – | – | 0.0355 | 0.0449 | 0.0396 | – | 0.0392 | – | – | – | – | 0.0347 |
| N186Y | 0.106 | 0.075 | – | – | 0.0659 | – | 0.0864 | – | – | – | 0.0997 | 0.0734 | 0.0607 | – | – | 0.0679 | 0.0333 | – | – |
| R160C | 0.125 | 0.0721 | – | – | – | 0.0568 | 0.106 | 0.0854 | – | – | 0.102 | 0.0718 | 0.0639 | 0.058 | 0.0606 | 0.0521 | 0.0553 | 0.0731 | 0.0648 |
| V57R | 0.114 | – | – | – | – | 0.0649 | – | – | – | 0.064 | 0.111 | 0.0891 | – | – | 0.0506 | 0.0594 | – | – | 0.0383 |
| G8W | 0.0888 | 0.0465 | – | – | – | 0.064 | – | 0.0765 | – | – | 0.0884 | 0.0621 | – | 0.0702 | 0.0608 | 0.0534 | – | – | – |
| L5D | 0.108 | 0.0828 | – | – | 0.0958 | – | – | 0.0889 | 0.0622 | – | 0.107 | 0.066 | 0.0655 | 0.0688 | 0.0677 | 0.0467 | 0.0832 | – | 0.0802 |
| I167D | 0.0474 | 0.0296 | – | – | 0.0576 | 0.0435 | 0.0601 | – | 0.107 | 0.0535 | 0.05 | 0.0464 | – | 0.0535 | – | 0.0421 | – | – | – |
| N24F | 0.0743 | 0.0775 | – | – | 0.0707 | – | 0.0721 | – | 0.0589 | 0.0611 | 0.086 | 0.0595 | 0.0141 | 0.0645 | 0.0558 | 0.0529 | – | 0.0538 | 0.0644 |
| H168P | 0.0486 | 0.0685 | – | – | 0.0682 | 0.0369 | 0.0433 | – | – | 0.0509 | 0.0548 | 0.0709 | – | 0.0487 | 0.0583 | – | – | – | – |
| P184Y | 0.0786 | – | – | – | – | 0.0546 | 0.0451 | 0.065 | – | 0.0466 | 0.0629 | 0.0509 | – | – | – | – | – | 0.0211 | 0.079 |
| Y12I | 0.144 | 0.0778 | – | – | – | 0.059 | 0.0961 | 0.0722 | 0.0674 | 0.0516 | 0.0984 | – | 0.0565 | 0.0647 | 0.0735 | 0.0705 | – | – | – |
| K120E | 0.0903 | 0.062 | 0.0492 | 0.093 | – | 0.0643 | 0.0662 | 0.0784 | 0.0546 | 0.0593 | 0.103 | 0.0775 | 0.0526 | 0.0658 | 0.059 | 0.0718 | – | 0.0532 | 0.0705 |
| S16K | 0.141 | 0.0584 | – | – | – | 0.046 | 0.0773 | – | 0.0535 | 0.0422 | 0.119 | – | 0.0574 | – | 0.0594 | 0.0568 | – | 0.0888 | 0.0904 |
| E223L | 0.0978 | 0.0701 | – | – | 0.0614 | 0.0587 | 0.0811 | 0.0766 | 0.0669 | 0.0372 | 0.0908 | 0.0669 | 0.0675 | 0.0636 | 0.069 | 0.0628 | 0.0584 | 0.0694 | 0.0726 |
| F163H | 0.124 | 0.0899 | – | 0.0701 | – | – | – | 0.0846 | – | – | 0.112 | 0.0691 | 0.053 | – | 0.106 | – | – | – | – |
| L22G | 0.0457 | – | – | 0.0486 | 0.0539 | 0.045 | – | – | – | – | 0.0442 | – | – | 0.0508 | – | – | – | 0.0492 | – |
| V210Y | 0.0908 | 0.0404 | – | 0.058 | 0.0904 | 0.0494 | 0.0743 | 0.0603 | 0.0513 | 0.0583 | 0.0986 | 0.0772 | 0.0583 | 0.066 | 0.0401 | 0.0557 | – | – | – |
| G166C | 0.0391 | 0.0495 | – | – | 0.0955 | – | 0.0377 | 0.0507 | 0.0554 | 0.0358 | 0.0487 | 0.0307 | 0.0485 | – | 0.0561 | – | – | 0.0476 | 0.0497 |
| E189K | 0.118 | 0.0754 | – | – | – | – | – | 0.0712 | – | – | 0.0901 | – | – | 0.06 | – | 0.0598 | – | – | 0.0722 |
| P9Q | 0.136 | – | – | 0.111 | 0.0862 | – | – | 0.0816 | – | 0.0596 | 0.117 | – | 0.0811 | 0.0618 | 0.0654 | 0.126 | – | – | 0.0796 |
| D11E | 0.128 | 0.0772 | – | 0.129 | 0.0897 | 0.071 | 0.0801 | 0.0704 | 0.053 | 0.0648 | 0.0944 | 0.0591 | 0.0491 | – | 0.0568 | 0.0578 | – | – | 0.08 |
| L48T | 0.0684 | 0.0589 | – | – | 0.0535 | – | 0.0653 | – | – | 0.0599 | 0.0728 | 0.0537 | – | – | 0.0522 | 0.0569 | – | 0.0724 | – |
| F101W | 0.101 | 0.0576 | – | – | 0.111 | 0.0639 | 0.0469 | 0.0899 | – | 0.0574 | 0.105 | 0.0654 | – | – | 0.0673 | 0.0746 | – | 0.0603 | 0.0705 |
